The supplement of paper PMC3334620
Whole data set: some 33,000 sequences, median “E-score (-0.5 to 0.5)” near -0.04, cut for the highest 2% near 0.36. The list shows a part of the results.

Target: T1, Hmlalpha2 (UniProt P0CY09)
T1 sequence: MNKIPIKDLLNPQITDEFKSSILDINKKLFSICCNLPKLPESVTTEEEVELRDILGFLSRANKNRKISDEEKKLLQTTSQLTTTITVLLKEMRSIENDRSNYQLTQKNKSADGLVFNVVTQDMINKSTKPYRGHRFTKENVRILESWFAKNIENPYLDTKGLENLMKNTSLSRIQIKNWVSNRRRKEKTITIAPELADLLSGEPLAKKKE
Assay: PBM E-score (8-mer binding enrichment) (E-score (-0.5 to 0.5)); higher = stronger / more preferred TF binding; most listed sequences are background and not binding sites
Settings: protein concentration: 200 nM; construct: GST-full length
Procedure, shortened: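 Bound GST-tagged yeast transcription factors, applied at about 100-200 nM to double-stranded universal all-10-mer Agilent arrays, were detected with fluorescent anti-GST. Scans were normalised with masliner. A modified Wilcoxon-Mann-Whitney statistic, the E-score, was assigned to each ungapped eight-base word pooled with its reverse complement by the Universal PBM Analysis Suite.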

In order of rising “PBM E-score” value:
1. CCGCAGAG  -0.445
2. GGCTGCCC  -0.413
3. CCGACTAG  -0.381
4. CGCTACCC  -0.355
5. GTCGCCAC  -0.316
6. CGGCACAG  -0.275
7. GAGAGGCA  -0.275
8. GCTAGTCC  -0.27
9. ACCTGAGG  -0.266
10. GAGTGACC  -0.264
11. AAGGGCAG  -0.256
12. CCCGTCAC  -0.255
13. CAGCAGGG  -0.229
14. AGCTAACC  -0.229
15. AGGGCCGC  -0.228
16. AGCTCTGA  -0.226
17. AGGTGGAG  -0.217
18. AGCGACCT  -0.215
19. GCCTGGAA  -0.215
20. CGCCACCA  -0.214
21. AGTACGGG  -0.205
22. CCCACCTA  -0.204
23. CCAAAAGC  -0.203
24. ATCCCGGA  -0.195
25. GGATTGGA  -0.193
26. AGGAGCGC  -0.191
27. ATGAGGAG  -0.187
28. CTTTCGGC  -0.185
29. CGGGCCGC  -0.181
30. AACCAGGT  -0.18
31. AGCATACC  -0.175
32. CGTTCAGA  -0.175
33. CCCTCCAC  -0.173
34. AGGTGGTC  -0.173
35. GGCTGATA  -0.172
36. TCAGCGGA  -0.169
37. CGTGACTC  -0.168
38. CAGGCATC  -0.165
39. ACAACTGG  -0.159
40. GACGATAA  -0.155
41. ACGGGTCC  -0.15
42. AAAGAAAG  -0.147
43. AGAAGCCA  -0.146
44. CCTTCGTA  -0.14
45. AGGATTAT  -0.137
46. GTCCAGGA  -0.133
47. AAACTGCC  -0.131
48. CAGACGGC  -0.13
49. GTACCGAC  -0.128
50. GATCTTCC  -0.125
51. ACAGGGGG  -0.118
52. ACGCCAAA  -0.116
53. AAGCATGG  -0.112
54. CAGAATCC  -0.111
55. CGAGTATC  -0.11
56. GCGCCAGC  -0.11
57. ATGCGGAA  -0.108
58. AGAATCGC  -0.106
59. AGGCACCG  -0.106
60. GCATTTCC  -0.105
61. AGTATCAC  -0.103
62. ATCGTGGC  -0.0901
63. ATAAGACG  -0.0879
64. CGACTTAC  -0.0878
65. ACTGATAT  -0.0875
66. AATCGCAA  -0.0873
67. CCGTTGAA  -0.0872
68. AGACGACC  -0.0835
69. AACCGCGC  -0.0821
70. TATCCTGA  -0.0757
71. AATGATCT  -0.0734
72. CAACCAGC  -0.0722
73. ACTTTCGC  -0.0678
74. CCGCGAAA  -0.0665
75. CCGGTTGA  -0.0664
76. GTACGGAC  -0.065
77. CGTTTCAG  -0.0639
78. ATCGGCTA  -0.0638
79. GGATTGAC  -0.0594
80. CGTGGCAA  -0.0577
81. AGAACTCT  -0.0547
82. ACGAGCGG  -0.054
83. GTGTGGGA  -0.0513
84. CGATGCGA  -0.0513
85. CACATCTG  -0.0493
86. AATCACGG  -0.0481
87. ACAGTACC  -0.0457
88. AGCCGTGC  -0.0432
89. CGAAAACG  -0.0396
90. ACCGCGCG  -0.0391
91. AGCGGCAT  -0.0338
92. GATCGGAC  -0.0333
93. CATTCATC  -0.0211
94. CCACACGG  -0.0191
95. GAGATTTA  -0.0174
96. ATATGCAC  -0.0157
97. TTCACCAA  -0.0146
98. CGGATGGA  -0.0123
99. ACGTACCC  -0.0113
100. CTTAATGA  -0.00841
101. GATATCCA  -0.00694
102. GCACAGGC  -0.00621
103. CACAGTCA  -0.00427
104. GCGATAGA  -0.00393
105. ACGAGTGC  -0.00337
106. TTCTAGAA  0.00872
107. GGCAATTA  0.0118
108. ATCGAACC  0.0125
109. CGGCGATA  0.0125
110. ATCAAAAA  0.0225
111. GCTACACC  0.0231
112. GTTACCCA  0.0243
113. GAAGTTCA  0.0277
114. CCACACCA  0.0331
115. CATATAGC  0.0334
116. AGCATGAG  0.0355
117. GCCTTATA  0.0388
118. AACATTAG  0.0422
119. AAGTATCA  0.0434
120. AGCAGGCG  0.046
121. ATATAGCA  0.0464
122. GACGTTGA  0.0484
123. ATTACCAG  0.0501
124. TCATTTAA  0.0591
125. ATCGATGC  0.0612
126. GGGGATTA  0.0616
127. CTAGCTAG  0.0622
128. ACTAAACC  0.064
129. TAAGCTAA  0.0671
130. ATTGCATA  0.0701
131. TGCAAAAA  0.077
132. CGTCACAC  0.0812
133. AATTCTCA  0.0848
134. CAAAGCTA  0.0855
135. CACTATGC  0.0946
136. ATCGTTGG  0.0955
137. ACGCATGA  0.101
138. ACAGTAAA  0.103
139. GAATTACC  0.107
140. TCTGGTAA  0.109
141. AAATGGAT  0.12
142. AAACAAAG  0.127
143. CGATAGTC  0.13
144. AATAGCAT  0.133
145. ATGATGCA  0.135
146. ACATCTCA  0.136
147. CCTTATAA  0.14
148. CAAACCAA  0.14
149. CATTTACC  0.144
150. ATGGATAC  0.154
151. CAACACTG  0.157
152. CGTCAAAG  0.158
153. AGTACAAA  0.161
154. ACAACTCG  0.162
155. GTCGTACA  0.163
156. TATAACGA  0.176
157. GCGTAACC  0.18
158. GAAACAAA  0.193
159. AAATTTAT  0.201
160. ACTTAATA  0.212
161. ATGGTTAC  0.212
162. ATTTCTCG  0.219
163. ACACAAAT  0.223
164. AACACTAC  0.256
165. TACAAAAA  0.261
166. AATATGTG  0.262
167. AAGATTAC  0.265
168. AAGTAAAC  0.283
169. CGATAACA  0.298
170. ACACGCGG  0.324
171. AACACGAG  0.377
172. ACATGTAG  0.459
